Data taken from paper PMC4336329 (PLoS ONE, 2015).
Out of some 310,000 compounds screened, about 2,200 (0.71%) showed an effect of 50% or more. The effect is printed as a negative number. Some of the results follow.

The compounds below were run against human ether-à-go-go-related gene (hERG) potassium channel (human, UniProt Q12809) (assay: primary screen, population patch clamp on CHO cells stably expressing hERG).
human ether-à-go-go-related gene (hERG) potassium channel, sequence (Q12809 whole entry, looked up): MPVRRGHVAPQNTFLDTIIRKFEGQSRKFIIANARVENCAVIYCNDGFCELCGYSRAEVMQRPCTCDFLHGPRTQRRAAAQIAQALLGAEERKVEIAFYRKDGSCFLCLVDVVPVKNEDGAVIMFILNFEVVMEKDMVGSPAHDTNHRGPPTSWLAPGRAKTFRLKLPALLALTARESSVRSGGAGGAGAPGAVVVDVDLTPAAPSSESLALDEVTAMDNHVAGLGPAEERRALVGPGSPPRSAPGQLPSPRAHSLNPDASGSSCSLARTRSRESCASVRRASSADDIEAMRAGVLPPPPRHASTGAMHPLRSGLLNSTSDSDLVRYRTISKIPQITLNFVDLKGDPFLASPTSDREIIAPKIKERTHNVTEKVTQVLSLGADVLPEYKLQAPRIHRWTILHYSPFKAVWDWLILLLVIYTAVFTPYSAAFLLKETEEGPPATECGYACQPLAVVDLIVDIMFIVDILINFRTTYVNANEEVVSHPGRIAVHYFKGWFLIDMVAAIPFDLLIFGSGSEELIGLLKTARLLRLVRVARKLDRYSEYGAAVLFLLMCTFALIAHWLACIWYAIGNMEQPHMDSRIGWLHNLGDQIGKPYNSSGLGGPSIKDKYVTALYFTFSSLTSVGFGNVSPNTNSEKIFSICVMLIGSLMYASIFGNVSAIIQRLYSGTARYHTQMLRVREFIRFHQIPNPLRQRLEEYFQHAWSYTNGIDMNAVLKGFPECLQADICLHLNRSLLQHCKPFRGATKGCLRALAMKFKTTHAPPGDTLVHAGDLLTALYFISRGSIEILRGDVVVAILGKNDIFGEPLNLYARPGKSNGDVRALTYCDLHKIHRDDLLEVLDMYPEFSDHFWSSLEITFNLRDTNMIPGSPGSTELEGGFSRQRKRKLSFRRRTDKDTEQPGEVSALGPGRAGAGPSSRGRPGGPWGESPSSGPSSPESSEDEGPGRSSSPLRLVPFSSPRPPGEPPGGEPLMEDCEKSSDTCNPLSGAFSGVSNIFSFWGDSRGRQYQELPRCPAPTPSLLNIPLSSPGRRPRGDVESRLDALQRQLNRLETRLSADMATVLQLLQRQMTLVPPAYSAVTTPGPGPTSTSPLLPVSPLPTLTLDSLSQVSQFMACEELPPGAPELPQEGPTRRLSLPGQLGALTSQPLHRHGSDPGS

SMILES | hERG current change (%, negative = inhibition) at 1uM
COc1cccc(CN2CCN(Cc3cc(OC)c(OC)c(OC)c3)CC2)c1OC.O=C(O)C(=O)O | 6.27%
Oc1ccc(C(=S)N2CCCCC2)cc1Cl | 5.43%
O=C(c1cc2ccccc2o1)N1CCN=C1SCc1cccnc1 | 4.85%
Cc1cc(C(=O)NC(C)c2ccncc2)cs1 (stereo not drawn) | -8.55%
Cc1cc(=O)[nH]c(SCC(=O)Nc2cc(S(=O)(=O)N(C)C)ccc2Cl)n1 | 20.3%
COc1ccc(NC(=S)N2CCN(Cc3ccc(C)cc3)CC2)cc1 | -14.9%
O=C(c1cccs1)N1CCC(C(=O)N2CCN(Cc3ccc4c(c3)OCO4)CC2)CC1 | -5.68%
N#CCCN(C(=O)COC(=O)c1cccc(S(=O)(=O)Nc2ccc([N+](=O)[O-])cc2)c1)c1ccccc1 | 3.53%
CC(=O)c1ccc(S(=O)(=O)N2CCN(C(=O)CSc3ccc(F)cc3)CC2)cc1 | 14.2%
Nc1nnc(-c2ccc(Cl)cc2)s1 | 16.9%
O=C(N=C1SC2CS(=O)(=O)CC2N1CCc1ccccc1)C1CC1 (stereo not drawn) | 9.32%
Cc1cccc(C)c1NC(=O)Cn1cnc2c(=O)n(C)c(=O)n(C)c21 | 7.67%
CCN1CCCC(OC(=O)c2cc(-c3ccc(C)cc3)nc3ccccc23)C1.Cl (stereo not drawn) | 10.3%
CCN(c1ccccc1)S(=O)(=O)c1ccc(OC)c(NC(=O)Cc2ccccc2OC)c1 | 6.49%
COc1ccc(S(=O)(=O)N2CCN(CC(=O)NCC3(N4CCOCC4)CCCCC3)CC2)cc1 | -0.52%
COc1ccc(OC)c2[nH]c(=O)c(CCNC(=O)C3CCCCC3)cc12 | -16%
Cc1ccc(S(=O)(=O)N2CCN(C(=O)c3c(C)nn(-c4ccccc4)c3Cl)CC2)cc1 | -14.3%
CCC(C)[C@H](NC(=O)Nc1ccc2c(c1)OCCO2)C(=O)O (stereo partly drawn) | 4.7%
NC(=S)N/N=C/c1ccc(-c2cccc([N+](=O)[O-])c2)o1 | -7.29%
COc1ccc(S(=O)(=O)NN(C)c2ncc(C(F)(F)F)cc2Cl)cc1 | 8.45%
COC1c2ccccc2C(=O)N1CCc1ccc(Cl)cc1 (stereo not drawn) | 13.5%
CCOC(=O)N1CCN(C(=O)CN2C(=O)COc3ccc(C(C)(C)C)cc32)CC1 | 0.234%

SMILES | hERG current change (%, negative = inhibition) at 1uM
O=C(Cn1nnc(-c2ccccc2)n1)N/N=C/c1cccc([N+](=O)[O-])c1O | 17.7%
O=C(Cc1cccs1)NCCS(=O)(=O)N1CCN(c2ccccc2F)CC1 | -1.63%
c1ccc(Nc2nc(N3CCOCC3)nc(N3CCOCC3)n2)cc1 | 9.49%
CCn1cc(C=C2C(=O)N(C)C(=O)N(C)C2=O)c2ccccc21 | 8.37%
CCCc1nnc(NC(=O)CN2CCN(C)CC2)s1.Cl | 4.48%
CC1CN(C(=O)Cn2cnc3c2c(=O)n(C)c(=O)n3C)CC(C)O1 (stereo not drawn) | 12%
Cn1cnc([N+](=O)[O-])c1Sc1nnc(-c2cccnc2)n1C | 17.2%
O=C(Oc1ccccc1OC(=O)N1CCOCC1)N1CCOCC1 | 15.9%
Cc1ccc(S(=O)(=O)N2CCCCC2)cc1NC(=O)C1=NN(c2ccccc2)C(=O)CC1 | 3.77%
CC(C)CNC(=S)NC1CCCC1 | 0.0993%
C[C@H](NC(=O)[C@@H]1Cc2ccccc2CN1C(=O)OC(C)(C)C)C(=O)NC1CCCC1 | 10.9%
COc1ccc(CCN2CC34C=CC(O3)C(C(=O)NCc3ccccc3)C4C2=O)cc1OC (stereo not drawn) | 16.5%
CCN(Cc1ccncc1)C(=O)c1cc(COc2ccc(F)cc2F)on1 | 1.82%
O=C1c2ccccc2NC(c2cccc(Cl)c2)N1N=C1CCCCCC1 (stereo not drawn) | 15.1%
O=C(CN1CCN(c2ncccn2)CC1)NCc1ccccc1 | 13.5%
CC(=O)N1CCN(C(=O)c2cccc(S(=O)(=O)N3CCN(c4ccc(F)cc4)CC3)c2)CC1 | 8.35%
COc1ccc(/C=C/S(=O)(=O)NCc2ccccc2)cc1OC | 8.59%
CCN(CC)C(=O)Cn1c(=O)n(C)c2ccccc21 | 6.43%
Cc1ccc(NC(=O)CS(=O)(=O)c2c[nH]c3ccccc23)c(C)c1 | 7.45%
COc1ccccc1C(=O)NCc1ccccn1 | 16.5%
O=C(O)c1ccc(NC(=O)C2C3CCC(C3)C2C(=O)O)cc1 (stereo not drawn) | 12.5%
CC1=C(C(=O)OCc2ccccc2)C(c2ccc([N+](=O)[O-])cc2)NC(=O)N1CCCCCC(=O)O (stereo not drawn) | 4.06%

SMILES | hERG current change (%, negative = inhibition) at 1uM
CCN(CC)S(=O)(=O)c1ccc(NC(=O)CCNC(=O)c2ccco2)cc1 | 17%
CC(C)(C)C#CCn1c(/C=[N+](\[O-])C2CCCCC2)nc2ccccc21 | -2.66%
Cc1cc(C)cc(N(CCC#N)C(=O)COC(=O)CN2C(=O)NC(C)(C)C2=O)c1 | 13.3%
COCCn1c(-c2ccc(Cl)cc2)nc2oc3cc(OC)ccc3c(=O)c2c1=O | 5.36%
COc1ccc(Cl)cc1NC(=O)CCN1CCOCC1 | 10.8%
OC(CN1CCN(c2cccc(C(F)(F)F)c2)CC1)c1c[nH]c2ccccc12 (stereo not drawn) | 11.7%
Cc1cc(C)c(C)c(S(=O)(=O)N2CCC(C(=O)Nc3ccc(S(=O)(=O)N4CCOCC4)cc3)CC2)c1C | 14.5%
COc1ccc(NC(=O)CS(=O)CC(=O)Nc2cc(Cl)ccc2OC)cc1 (stereo not drawn) | 2.24%
COc1ccc(S(=O)(=O)N2CCOCC2)cc1Cl | 1.7%
O=C1CCCc2cc(S(=O)(=O)N3CCC(C(=O)NCc4ccccc4)CC3)ccc2N1 | 12.5%
COc1cccc(N=Nc2c(C)[nH]n(-c3ccccc3)c2=O)c1 | 9.16%
O=C(c1cnn(-c2ccccc2)c1)c1ccccc1O | 9.45%
CCNC(=O)NC(=O)COC(=O)c1cccc(NS(=O)(=O)/C=C/c2ccccc2)c1 | 7.98%
Cc1cccn2cc(CNc3ccccc3)nc12 | -0.347%
COc1cc(C2NC(=S)NC(O)(C(F)(F)F)C2C(=O)c2cccs2)cc(OC)c1O (stereo not drawn) | 25.1%
CC1CCC(NC(=O)c2ccc(NC(=O)c3ccc(=O)[nH]c3)cc2)CC1 (stereo not drawn) | 7.21%
Cc1ccc(NCC(=O)N/N=C/c2cccc(Br)c2)cc1 | 7.99%
CCOC(=O)CC(=O)CSc1nnc2c(n1)[nH]c1ccccc12 | 12.1%
O=C(NCCN1CCOCC1)c1cc2c(=O)n3ccccc3nc2n1Cc1ccccc1 | 8.53%
Cc1ccc(S(=O)(=O)NCc2ccccc2)cc1C(=O)NC1CCC(C)CC1 (stereo not drawn) | 5.85%
S=C(N/N=C/c1ccc2ncccc2c1)Nc1ccccc1 | 38.2%
COc1ccc(CN2C(=O)C(=O)N(CC(N)=O)C2=O)cc1 | 14.9%

SMILES | hERG current change (%, negative = inhibition) at 1uM
CCc1cc2c(-c3ccccc3)cc(=O)oc2cc1OC(=O)c1cccs1 | 8.71%
O=C1CCC(=O)N1CCSC(=S)N1CCSCC1 | 4.36%
O=C(/C=C/c1ccc(Cl)c([N+](=O)[O-])c1)Nc1ccc(N2CCCC2)cc1 | 9.83%
CC(=O)C1=C(Nc2ccc(C)cc2)CC(C)(O)C(C(C)=O)C1c1ccco1 (stereo not drawn) | 14%
O=C(NCc1ccc(F)cc1)C1Cc2ccccc2CN1C(=O)c1ccco1 (stereo not drawn) | -9.41%
Cc1nn(-c2ccc(F)cc2)c2sc(C(=O)OC3CCOC3=O)cc12 (stereo not drawn) | 12.4%
Nc1nnc(CCCCCCCCCCc2nnc(N)s2)s1 | 11.7%
CCCC12CN3CCN(CC(C3)/C1=N\NC(=O)c1ccccc1Cl)C2 | 5.82%
O=S(=O)(/C=C/c1ccccc1)N1CCOCC1 | 9.72%
Cc1nc(C(=O)Nc2ccc(Cl)cc2)nn1-c1ccc([N+](=O)[O-])cc1 | -38.4%
NC(=O)C1CCN(c2ccc3c(c2)S(=O)(=O)c2ccccc2C3=O)CC1 | 8.49%
N#CC(C#N)=C1C=CC=CN1/C(=C\c1ccco1)C(=O)c1ccc(-c2ccccc2)cc1 | 8.49%
Cc1cccc(N2CCN(S(=O)(=O)c3c(C)[nH]c(C)c3C(=O)N3CCCC3)CC2)c1C | 4.74%
CC(C)NC(=O)[C@@H]1C[C@@]1(C)[C@@H](NC(=O)OCc1ccccc1)c1ccccc1 | 15.3%
COc1ccccc1N1CCN(/N=C/c2ccc(Cl)c([N+](=O)[O-])c2)CC1 | 10.9%
CCCCn1c(=O)c(C(=O)NC(C)c2ccccc2)c(O)c2ccccc21 (stereo not drawn) | 20.6%
CC(=O)N1c2ccc(S(=O)(=O)N3CCC(C(=O)Nc4cccc(C)c4C)CC3)cc2CC1C (stereo not drawn) | -16.8%
COc1ccccc1OCc1ccc(C(=O)NC(C)c2ccccc2)o1 (stereo not drawn) | 4.47%
Cc1cccc(NC(=O)CSc2nnc(CNC(=O)c3ccco3)n2C)c1 | 24.2%
NC(=O)c1cc(-c2ccccc2)sc1NC(=O)CN1CCCCC1 | 7.93%
Cc1cccc(N2C(=O)C3C4C=CC(C4)C3C2=O)c1 (stereo not drawn) | 4.48%
